Data taken from the RNAGym collection of RNA variant scans (doi:10.7554/elife.90254).
The source gives no read counts; variants with many changes may rest on few reads.

B1: LINE1-mini (parent)
chain: GGCAGAGCUCAACACAGCGUGGCAAAGUGGCUGUGGCUAGACUGCC

Variants of: B1
Test: self-cleavage, relative activity (ratio to wild type); higher = more cleavage; in vitro, sequencing; the parent is a self-cleaving ribozyme

Variant | self-cleavage
G22U U28G C37A A41U | 0.18
A14U G19U G44C | 0.22
C8A A16C G29U G36A | 0.19
C3U G5U C37U | 0.22
G7A G21A A39C G44U | 0.27
G2C C15A G19C G21U C42G C46U | 0.02
G5U U9G G17U G27C G33A | 0.12
G22C U38C A39G | 0.07
G5U G19A G22U | 0.05
A4C C10G C18U | 0.02
C8U A12G G21A | 0.03
C3A G17U C23G A26G G33C | 0.01
C13A G22C C37A | 0.02
G5A C15A U20G G30C G35A | 0.01
C8G C10A C18A | 0.05
C13A G17C A24U A26C G44A | 0.09
A11G C18A G19C | 0.01
A6C G21U A41U | 0.09
G1C A26C U32C C42G | 0
G7A C31A C42G C45G | 0.06
C8G C15U C45A C46U | 0.3
C3A C8G G19C G27C | 0.15
C8G A11C A41G | 0.02
G7C C10A A26G G27A | 0.02

Variant | self-cleavage
U9A G22A G44C | 0.07
U9A C18U G36A C37A | 0.27
C3U G21A A25U U32A A41C G44C | 0.04
A14G C18A A25C U28A C45U | 0.05
U9C C18G A39G | 0.03
C10A A11C G27A G29A G30U | 0.02
C10G C18A G19A C46A | 0.04
C23G A25C G29A C42G | 0.01
A11U G21U G22A G27C C31A | 0
G2C A4U C10A G21C A24U A26G | 0.01
U9A A14U A16G | 0.05
C18G U20C G21A | 0.09
U9G C13A G33U C46A | 0.17
G21U C23A U43A | 0.18
G2A G7U U28G G35U | 0.01
G21C C23A G30U G35C | 0.03
U20A A41C G44A | 0.08
G1C G7C G19U | 0.02
U9C A14G G27A | 0.05
G1C G5A A12U A14G A25G U32G | 0.03
G1A G5U C13G C23A G29U C37U | 0.12
A12G C15A G19A G21A G22C | 0.02
G2A G27U C42U | 0.11
C8G A12U C18A | 0.03

Variant | self-cleavage
C3U A4U C23U A24G G30A | 0.57
G21U U38C U43A | 0.07
A6U G17A C23A | 0.13
C8G G21C G40C | 0.07
C10A G21C A41C | 0
C13G U28C G29C G40A | 0.02
C13G C23U C37U | 0.2
C8U G21U G29U C37A A41U C42A | 0.14
G5U G22A A25C G33U | 0.08
A12G U20C G27C | 0
A12G C13U G17A A24U G44U | 0.01
U9A G36C C42U G44A | 0.01
G22C G27C U32A | 0.08
A14G C15A C42A | 0.23
C3A G22U C23U G44C | 0.73
G17A C18U C31G | 0.04
A11U G30C A41C | 0.01
A26C G30U C37A | 0.05
C10A G33C G40A | 0.07
G21A A24G G27U C45A | 0.25
A6C A14U U20C G30A C37A | 0.07
A14C G22C A25C | 0.02
G30U G33C C46A | 0.01
C3A C13U C18U U20A | 0.34

Variant | self-cleavage
C8G G19C U28G G36A | 0.02
G5C G22A U34G | 0.06
G1C A11G A12G A26U C46A | 0.01
U9A U34C A39G | 0.06
U20A G21A C45G | 1.33
U9A C10U G22C G27C C31A G33C C42G U43C | 0.03
C23A A26G U32C C46G | 0.07
G5U C10G A11G G30U C37A | 0.01
A12U A16G U20C A24G A26C C37U | 0.01
G2A A11C U38C C46G | 0.02
A11G G19U G30A | 0.02
G5U G21A C37U C45G | 0.05
C3A C13G G36C G44A | 0.31
G5U A12U A24G C42G | 0.01
G2C C8A C18A C42A G44C | 0.07
A14C A26G G33U | 0.04
A14C G21U A41U | 0.1
G7U A16C G17A G19A C23U C31G | 0.01
G5U A12G G36U | 0.01
A4U C18A G40C | 0.02
G7U C8A A41U | 0.3
G21A C31U G33U | 0.03
G2U C3U C8U A25C | 0.05
C10U C31U U32A | 0.01

Variant | self-cleavage
G2C C10A G22U G35U C42A | 0
C3A C18G C45A | 0.02
C3U C13U C31G C46A | 0.06
A4G G17A G19U | 0.03
G5A A6C C18U G44C | 0.05
C15A C37U C45G | 0.05
A6U U32G C42U | 0.03
C8A G29U G33U | 0.1
G5U A14G G40U | 0.06
C23A A26U G44U | 0.06
A4C G19C G40C | 0.02
A6G C13A C15G A24C G33U C37U | 0.01
A12C U38A C45G | 0.02
C8A G29A G33U | 0.05
C8A C42U C46U | 0.4
A4G C8A U9C A14G A24C | 0.21
U9A C23A U43C | 0.06
C8A A14G G36U | 0.06
A6U C13U A16G G21C U28G C31U G35C | 0.02
G2A G22A A25G | 0.25
A6G A16U C37U A41U | 0.01
C3U U28A U34A | 0.05
C10U C13G G22A C31U G36A A39U G44U C45A | 0
C10A G36U C37A A39U | 0

Variant | self-cleavage
C3U A25C C37G G44U | 0.08
C8A C15G C42A | 0.11
G1U A6C A41G C46A | 2.73
A6G C23G G27A G36C | 0.03
C15A G33U C46A | 0.25
G5A A39C A41G | 0.14
G1U A11G A12C | 0
G29C C37U C46A | 0.01
G1U C8A A16C C46G | 0.03
A14G A24G G30C A41C | 0.06
C15U A16U C18U | 0.04
C8G A12G A16U C37G | 0.04
U28G G30C C46A | 0.07
G7C G22U G27C A39C C45G | 0.02
G17C C23G G35A | 0.06
A4G A6G G17A U38A | 0.04
A12G C13A G36U C42U | 0.04
G7C G19U G29C A41G | 0.05
C23A A39C C45A | 0.08
G5A G21A U34C | 0.03
G2C C10A U34G | 0.04
C8G A12G A14C C15A U38A U43A | 0.09
C18U G21U A24G | 0.62
A6G G19C U43A | 0.02

Variant | self-cleavage
C13U G35C C37U G44U | 0.04
A4G C45G C46A | 0.08
C15U C23U G29C U43G | 0.01
U9C A11U G36U C42G C46G | 0.01
U34G C37U U43C | 0.05
A14C U20C G44A C45G | 0.02
C13A A25C G44U | 0.03
G2U A6U A14C G22U | 0.02
C8A G40U G44C | 0.19
G21C A26G G44U C46G | 0.1
G19U U34A C37G | 0.04
G7A U20G G22A G40A | 0.06
A11U U20C G29U G36A U38C C45U | 0.01
G2U G5U C8A U28C | 0.03
A12U C23A C42A U43C | 0.05
G5U U32A G36C | 0.05
C10U U20G G30U C31U | 0.11
G5U A6C C18U C46G | 0.02
A11U C37U U43A | 0.01
C18A A24C G36A | 0.06
G1U G30A U32C C45U C46A | 0.07
G17C G22U U28C U43C | 0.06
A6G G7U C42U | 0.07
